Some of the results follow. At the low end of the ranking, values are background and their order means little.
These sequences were tested against T1, ELK1 (UniProt P19419) (assay: custom PBM). Details: custom protein-binding microarray; buffer, salt, pH and temperature not stated; high values mean tight binding; double strand, one strand shown.
T1 sequence: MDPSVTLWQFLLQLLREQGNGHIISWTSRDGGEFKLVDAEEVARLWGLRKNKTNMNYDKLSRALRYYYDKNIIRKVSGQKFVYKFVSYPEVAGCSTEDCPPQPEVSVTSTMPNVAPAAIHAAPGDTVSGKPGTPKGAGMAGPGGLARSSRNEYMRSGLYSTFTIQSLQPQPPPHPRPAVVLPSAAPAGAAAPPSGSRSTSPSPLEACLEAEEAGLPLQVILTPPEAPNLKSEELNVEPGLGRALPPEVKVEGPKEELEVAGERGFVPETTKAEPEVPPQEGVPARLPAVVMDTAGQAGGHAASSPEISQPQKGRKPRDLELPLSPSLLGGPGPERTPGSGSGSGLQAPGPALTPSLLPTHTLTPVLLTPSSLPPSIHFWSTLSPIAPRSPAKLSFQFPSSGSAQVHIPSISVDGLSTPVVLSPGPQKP
“TCTCGGGTAAGGGAATGTAGATCACGTGAATGAAAAGTCTTGATTCGCTTGACGCTGCTG” showed a binding signal (log fluorescence intensity) of 8.95.
With “TACTGACTTATATATGCGAATGCACACGAATAGACCGTCTTGATTCGCTTGACGCTGCTG” the binding signal (log fluorescence intensity) was 8.86.
“TAAACGGAAGACGGTTGTGGTAGTTCCGGGTATTAAGTCTTGATTCGCTTGACGCTGCTG” showed a binding signal (log fluorescence intensity) of 12.5.
For “GTGTATAGGATCCTATCCAACACACGTGTTAAAATGGTCTTGATTCGCTTGACGCTGCTG”, the binding signal (log fluorescence intensity) was 8.82.
For “TACGGCTACCAGCTCCACCCACTTCAGGCCTTGTAGGTCTTGATTCGCTTGACGCTGCTG”, the binding signal (log fluorescence intensity) was 8.75.
With “CACAATTTTTACAGTTATGTAGCACGCGTAACTCCTGTCTTGATTCGCTTGACGCTGCTG” the binding signal (log fluorescence intensity) was 8.94.
In the case of “GGAAGAAGGCCCAGGGTAACACCGGAAGTGGGCTTAGTCTTGATTCGCTTGACGCTGCTG”, the binding signal (log fluorescence intensity) is reported as 10.9.
“TACTGACTCATATATGCGAATGCACATGAATAGACCGTCTTGATTCGCTTGACGCTGCTG” gave a binding signal (log fluorescence intensity) of 8.97.
Sequence “CGGAAGTGTCGTAAACGCCGGATATCCGGTTCTTCTGTCTTGATTCGCTTGACGCTGCTG” has a binding signal (log fluorescence intensity) of 13.3.
“CGGAAGTGTCGTAAACGTCGGATATCCGGCTCTTCTGTCTTGATTCGCTTGACGCTGCTG” showed a binding signal (log fluorescence intensity) of 12.4.
With “CGGAAGTGTCATAAACGTCGGATATCCGGTTCTTCTGTCTTGATTCGCTTGACGCTGCTG” the binding signal (log fluorescence intensity) was 12.1.
With “CAGCATAGGACTTCTTCTCTGAAGCAATTGATAACCGTCTTGATTCGCTTGACGCTGCTG” the binding signal (log fluorescence intensity) was 8.79.
For “GCTGCTGCGGTGCAAACCCCACCGGATGTGACCCCGGTCTTGATTCGCTTGACGCTGCTG”, the binding signal (log fluorescence intensity) was 10.2.
Sequence “TACTGACTTATATATGCGAATGCACATGAATAGAGCGTCTTGATTCGCTTGACGCTGCTG” has a binding signal (log fluorescence intensity) of 8.88.
Sequence “TCCGGCTACTAGCTCCACCCACTTCAGGCCTTGTAGGTCTTGATTCGCTTGACGCTGCTG” has a binding signal (log fluorescence intensity) of 8.93.
With “GTGTATAGGATCCCGTCCAACACACGTGTTAAAATGGTCTTGATTCGCTTGACGCTGCTG” the binding signal (log fluorescence intensity) was 8.8.
Sequence “GATTAATTTCTGCCCTTATTCGCACGTGCCATGACAGTCTTGATTCGCTTGACGCTGCTG” has a binding signal (log fluorescence intensity) of 8.86.
“CGGAAGTGTCGTAAACATCGGATATCCGGTTCTTCTGTCTTGATTCGCTTGACGCTGCTG” was tested, and the binding signal (log fluorescence intensity) was 12.6.
Work on “TGTCGGGTAAGGGAATGTAGATCACGTGAATGGAAAGTCTTGATTCGCTTGACGCTGCTG” yielded a binding signal (log fluorescence intensity) of 8.81.
“GATTAATTTCTTCCCTTATTCGCACGTGCCATAACAGTCTTGATTCGCTTGACGCTGCTG” showed a binding signal (log fluorescence intensity) of 9.19.
For “TGTCGGGTAAGGGAATGTAGATAACGTGAATGAAAAGTCTTGATTCGCTTGACGCTGCTG”, the binding signal (log fluorescence intensity) was 8.93.
Work on “CGGGAGTGTCGTAAACGTCGGATATCCGGTTCTTCTGTCTTGATTCGCTTGACGCTGCTG” yielded a binding signal (log fluorescence intensity) of 12.1.
“TACTGACTTATATATGCGAATGGACATGAATAGACCGTCTTGATTCGCTTGACGCTGCTG” showed a binding signal (log fluorescence intensity) of 8.79.
With “TGTCGGGTAAGGGAATGTAAATCACGTGAATGAAAAGTCTTGATTCGCTTGACGCTGCTG” the binding signal (log fluorescence intensity) was 8.82.
“TGTCGGGTAAGGGAATATAGATCACGTGAATGAAAAGTCTTGATTCGCTTGACGCTGCTG” was tested, and the binding signal (log fluorescence intensity) was 8.88.
In the case of “CTGGGACATGACCCAACTCTGCCACGTGGGTCGTTTGTCTTGATTCGCTTGACGCTGCTG”, the binding signal (log fluorescence intensity) is reported as 8.96.
With “TCCGGCTACCAGCTCCACCCACTTAAGGCCTTGTAGGTCTTGATTCGCTTGACGCTGCTG” the binding signal (log fluorescence intensity) was 8.77.
With “TAAAGGGAAGACGGTTGTTGTAGTTCCGGGTATTAAGTCTTGATTCGCTTGACGCTGCTG” the binding signal (log fluorescence intensity) was 11.4.
With “GTGTATAGGATACCATCCAACACACGTGTTAAAATGGTCTTGATTCGCTTGACGCTGCTG” the binding signal (log fluorescence intensity) was 8.88.
Sequence “CTGGGACTTGACCCAACTCTGCCACGTGGCTCGTTTGTCTTGATTCGCTTGACGCTGCTG” has a binding signal (log fluorescence intensity) of 9.01.
Work on “TAAAGGGAAGACGGTTGTGGCAGTTCCGGGTATTAAGTCTTGATTCGCTTGACGCTGCTG” yielded a binding signal (log fluorescence intensity) of 11.2.
With “CACAATTTTTACAGTAATGTAGCACTCGTAACTCCTGTCTTGATTCGCTTGACGCTGCTG” the binding signal (log fluorescence intensity) was 8.7.
Work on “CGGAAGTGTCGTAAACGTCGGATATCCGGTTCTTCGGTCTTGATTCGCTTGACGCTGCTG” yielded a binding signal (log fluorescence intensity) of 12.4.
“TGACGGGTAAGGGAATGTAGATCACGTGAATGAAAAGTCTTGATTCGCTTGACGCTGCTG” showed a binding signal (log fluorescence intensity) of 8.82.
“CACAATTTTTACGGTAATGTAGCACGCGTAACTCCTGTCTTGATTCGCTTGACGCTGCTG” showed a binding signal (log fluorescence intensity) of 8.85.
In the case of “TAAAGGGCAGACGGTTGTGGTAGTTCCGGGTATTAAGTCTTGATTCGCTTGACGCTGCTG”, the binding signal (log fluorescence intensity) is reported as 11.
Sequence “CACAATTTTTACAGTAATGTAGCACGCGAAACTCCTGTCTTGATTCGCTTGACGCTGCTG” has a binding signal (log fluorescence intensity) of 8.87.
In the case of “TACTTACTTATATATGCGAATGCACATGAATAGACCGTCTTGATTCGCTTGACGCTGCTG”, the binding signal (log fluorescence intensity) is reported as 9.06.
Sequence “GATTAATTTCTGCACTTATTCGCACGTGCCATAACAGTCTTGATTCGCTTGACGCTGCTG” has a binding signal (log fluorescence intensity) of 8.99.
In the case of “CTGCGACTTGACCCAACTCTGCCACGTGGGTCGTTTGTCTTGATTCGCTTGACGCTGCTG”, the binding signal (log fluorescence intensity) is reported as 8.96.
“CGGAAGTGTCGTAACCGTCGGATATCCGGTTCTTCTGTCTTGATTCGCTTGACGCTGCTG” gave a binding signal (log fluorescence intensity) of 12.5.
“GCTGCTGCGGTGCAGACCCCACCGGATGTGACCCCGGTCTTGATTCGCTTGACGCTGCTG” showed a binding signal (log fluorescence intensity) of 10.2.
Sequence “TCCGGCTACCAGCTCCACCCACTGCAGGCCTTGTAGGTCTTGATTCGCTTGACGCTGCTG” has a binding signal (log fluorescence intensity) of 8.95.
“TGTCGGGTAAGGGAATGTAGTTCACGTGAATGAAAAGTCTTGATTCGCTTGACGCTGCTG” showed a binding signal (log fluorescence intensity) of 8.78.
For “CGGAAGTGTCGTAAACGTCGGATATCCGGTTCTGCTGTCTTGATTCGCTTGACGCTGCTG”, the binding signal (log fluorescence intensity) was 12.5.
With “CTGGGACTTGACCCTACTCTGCCACGTGGGTCGTTTGTCTTGATTCGCTTGACGCTGCTG” the binding signal (log fluorescence intensity) was 8.91.
“GCTGCTGCGGTGCATACCCCCCCGGATGTGACCCCGGTCTTGATTCGCTTGACGCTGCTG” gave a binding signal (log fluorescence intensity) of 9.57.
For “CAGCATAGGACTTCTTCCCTGATGCAATTGATAACCGTCTTGATTCGCTTGACGCTGCTG”, the binding signal (log fluorescence intensity) was 8.84.
“CGGAAGTGTCGTAAACGTCGGATATCCGGTTCTCCTGTCTTGATTCGCTTGACGCTGCTG” showed a binding signal (log fluorescence intensity) of 12.6.
Work on “CTGGGTCTTGACCCAACTCTGCCACGTGGGTCGTTTGTCTTGATTCGCTTGACGCTGCTG” yielded a binding signal (log fluorescence intensity) of 8.93.
In the case of “TAAAGGGAAGACGGTTGTAGTAGTTCCGGGTATTAAGTCTTGATTCGCTTGACGCTGCTG”, the binding signal (log fluorescence intensity) is reported as 11.3.
Work on “GATTAATGTCTGCCCTTATTCGCACGTGCCATAACAGTCTTGATTCGCTTGACGCTGCTG” yielded a binding signal (log fluorescence intensity) of 8.85.
